Data on 33 molecules can be found in PMC4594927 (PLoS ONE, 2015).

One assay has as its system Mtb strain H37Rv. Description: microbe, parasite or virus in culture. Type of assay: cell-based, Mycobacterium tuberculosis. The conditions noted are these: for MIC: Mycobacterium tuberculosis, H37RV.
The next assay deals with hIMPDH1. Conditions: cited from earlier work.
The next assay concerns hIMPDH2. Conditions: cited from earlier work.
For another assay, the system named is MtbIMPDH2. The conditions noted are these: cited from earlier work.
Assay [1] concerns the target T1, CpIMPDH (Cryptosporidium parvum, UniProt Q8T6T2). Conditions: cited from earlier work.
T1 sequence (Q8T6T2 whole entry): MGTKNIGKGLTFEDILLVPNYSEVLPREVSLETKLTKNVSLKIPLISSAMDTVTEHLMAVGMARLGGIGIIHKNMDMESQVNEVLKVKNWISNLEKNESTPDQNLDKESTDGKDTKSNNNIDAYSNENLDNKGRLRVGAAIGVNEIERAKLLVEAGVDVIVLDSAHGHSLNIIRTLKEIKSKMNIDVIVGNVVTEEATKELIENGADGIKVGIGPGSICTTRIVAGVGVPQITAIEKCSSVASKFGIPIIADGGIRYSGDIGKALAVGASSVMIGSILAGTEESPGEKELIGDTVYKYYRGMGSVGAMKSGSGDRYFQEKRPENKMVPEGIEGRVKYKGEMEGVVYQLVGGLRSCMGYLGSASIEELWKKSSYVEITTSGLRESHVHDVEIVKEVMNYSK
Assay [2] has as its target T1, CpIMPDH. Description: biochemical.
Setting [3] is: 168 h, read-out: MIC in 7H9 media + Gua.
[4] abbreviates: read-out: MIC in 7H9 media - Gua.
Setting [5] is: 168 h, read-out: MIC in GAST media + Gua.
Setting [6] is: 168 h, read-out: MIC in GAST media - Gua.

In brackets after ≈: the same amount, converted by molar mass. Where two headings read alike, the source gives them in different places. Marks after values point to notes of the source that are not given here.

For `COc1c(C)c2c(c(O)c1C/C=C(\C)Cn1cc(COC[C@H]3O[C@@H](n4cnc5c(N)ncnc54)[C@H](O)[C@@H]3O)nn1)C(=O)OC2` [MAD1, reference compound], the MIC was 75 µM in the assay with Mtb strain H37Rv (setting [3]); above 100 µM with Mtb strain H37Rv (336 h, read-out: MIC in GAST media + Gua); 100 µM (≈ 60.9 µg/mL) in the assay on Mtb strain H37Rv (336 h, read-out: MIC in GAST media - Gua); 50 µM (≈ 30.4 µg/mL) in the assay on Mtb strain H37Rv (setting [4]). For the molecule `NC(=O)c1ccc[n+]([C@@H]2O[C@H](COP(=O)([O-])OP(=O)(O)OC[C@H]3O[C@@H](n4cnc5c(N)ncnc54)[C@H](O)[C@@H]3O)[C@@H](O)[C@H]2O)c1` [NAD+], the “Kii (NAD+)” value with hIMPDH1 is 2.0 ± 0.6 ^d mM; with hIMPDH2, 0.59 ± 0.02 ^e mM; with MtbIMPDH2, 5.0 ± 0.6 mM. The Km – broadly, the concentration of substrate that gives half-maximal velocity – with hIMPDH1 (read-out: Km (NAD+)) is 42 to 70 µM; in the assay on hIMPDH2 (read-out: Km (NAD+)), 6 to 32 µM; in the assay on MtbIMPDH2 (read-out: Km (NAD+)) it was 1000 ± 95 µM. `C=C(C)c1cccc(C(C)(C)NC(=O)Nc2ccc(Cl)cc2)c1` [P11]: the Ki at CpIMPDH [1] is 0.02 ± 0.007 µM. For `C=C(C)c1cccc(C(C)(C)NC(=O)Nc2ccc(Cl)c(Cl)c2)c1` [P13], the Ki on CpIMPDH [1] was 0.006 ± 0.001 µM. On to `C=C(C)c1cccc(C(C)(C)NC(=O)Nc2ccc3ccccc3c2)c1` [P14], for which the Ki at CpIMPDH [1] was 0.0021 ± 0.0008 µM. Consider `C=C(C)c1cccc(C(C)(C)NC(=O)Nc2cccc(Cl)c2)c1` [P15], for which the Ki at CpIMPDH [1] is 0.07 ± 0.01 µM.

For the molecule `C=C(C)c1cccc(C(C)(C)NC(=O)Nc2ccc(Cl)c(C(N)=O)c2)c1` [P16], the Ki at CpIMPDH [1] is 0.0023 ± 0.0008 µM. Further, the “antitubercular activity (active / inactive)” value with Mtb strain H37Rv was “inactive”. As to `C=C(C)c1cccc(C(C)(C)NC(=O)Nc2cccc3ccccc23)c1` [P17], the Ki at CpIMPDH [1] was above 5 µM. In the case of `CC(=O)c1cccc(C(C)(C)NC(=O)Nc2ccc(Cl)cc2)c1` [P20], the Ki at CpIMPDH [1] was 0.039 ± 0.01 µM. With `CC(C)c1cccc(C(C)(C)NC(=O)Nc2ccc3ccccc3c2)c1` [P22], the Ki at CpIMPDH [1] was above 5 µM. `CC(=O)c1cccc(C(C)(C)NC(=O)Nc2ccc3cccnc3c2)c1` [P24]: the Ki at CpIMPDH [1] was 0.029 ± 0.018 µM.

For `CC(=O)c1cccc(C(C)(C)NC(=O)Nc2ccc(Cl)c(C(N)=O)c2)c1` [P25], the Ki on CpIMPDH [1] was 0.054 ± 0.007 µM. In addition, the “antitubercular activity (active / inactive)” value in the assay with Mtb strain H37Rv was “inactive”. On to `CC(=NO)c1cccc(C(C)(C)NC(=O)Nc2ccc3cccnc3c2)c1` [P27], for which, on CpIMPDH [1], the Ki was 0.0009 ± 0.0002 µM. For the molecule `CC(=NO)c1cccc(C(C)(C)NC(=O)Nc2ccc(Cl)cc2)c1` [P37], the Ki at CpIMPDH [1] was 0.005 ± 0.003 µM.

Turning to `C=C(C)c1cccc(C(C)(C)NC(=O)Nc2ccccc2)c1` [P38], the Ki at CpIMPDH [1] was 0.25 ± 0.02 µM. `C=C(C)c1cccc(C(C)(C)NC(=O)Nc2ccccc2Cl)c1` [P39]: on CpIMPDH [1], the Ki is above 5 µM. With `C=C(C)c1cccc(C(C)(C)NC(=O)Nc2ccc(Cl)c(C(=O)N(C)C)c2)c1` [P41], the MIC with Mtb strain H37Rv (setting [3]) was at least 38 µM; with Mtb strain H37Rv (setting [5]), at least 40 µM; in the assay on Mtb strain H37Rv (setting [6]), 5 ± 3.1 µM (≈ 2 µg/mL); in the assay with Mtb strain H37Rv (read-out: M. tuberculosis MIC), 5 µM (≈ 2 µg/mL); in the assay on Mtb strain H37Rv (setting [4]) it was 33.3 ± 13.5 µM (≈ 13.3 µg/mL).

On to `C=C(C)c1cccc(C(C)(C)NC(=O)Nc2ccc(Cl)c(C(=O)NC)c2)c1` [P42], for which the Ki on CpIMPDH [1] was 0.007 ± 0.002 µM.

On to `CC(=NO)c1cccc(C(C)(C)NC(=O)Nc2ccc(Cl)c(Cl)c2)c1` [P47], for which, at CpIMPDH [1], the Ki is 0.19 ± 0.01 µM.

`C=C(C)c1cccc(C(C)(C)NC(=O)Nc2ccc3ccccc3n2)c1` [P54]: the Ki on CpIMPDH [1] is 0.08 ± 0.02 µM. On to `C=C(C)c1cccc(C(C)(C)NC(=O)Nc2ccc3ncccc3c2)c1` [P55], for which the Ki on CpIMPDH [1] is 0.0018 ± 0.0004 µM. On to `C=C(C)c1cccc(C(C)(C)NC(=O)Nc2cnc3ccccc3c2)c1` [P59], for which the Ki on CpIMPDH [1] is 0.07 ± 0.001 µM. With `CON=C(C)c1cccc(C(C)(C)NC(=O)Nc2ccc(Cl)c(C#N)c2)c1` [P69], the Ki on CpIMPDH [1] is 0.01 ± 0.005 µM. With `CON=C(C)c1cccc(C(C)(C)NC(=O)Nc2ccc(Cl)c(C(N)=O)c2)c1` [P74], the Ki at CpIMPDH [1] was 0.005 ± 0.002 µM. In addition, the “antitubercular activity (active / inactive)” value in the assay on Mtb strain H37Rv was “inactive”. For the molecule `CC(=O)c1cccc(C(C)(C)NC(=O)Nc2ccc(Cl)c(C(F)(F)F)c2)c1` [P80], on CpIMPDH [1], the Ki was 0.009 ± 0.005 µM.

Consider `CC(=NO)c1cccc(C(C)(C)NC(=O)Nc2ccc(Cl)c(C(F)(F)F)c2)c1` [P82], for which the Ki on CpIMPDH [1] was 0.001 ± 0.0001 µM.

Take `CON=C(C)c1cccc(C(C)(C)NC(=O)Nc2ccc(Cl)c(C(F)(F)F)c2)c1` [P83]: on CpIMPDH [1], the Ki is 0.005 ± 0.001 µM. Regarding `CC(=O)c1cccc(C(C)(C)NC(=O)Nc2ccc(Cl)c([N+](=O)[O-])c2)c1` [P93], the Ki on CpIMPDH [1] is 0.02 ± 0.01 µM. In the case of `C=C(C)c1cccc(C(C)(C)NC(=O)Nc2ccc(C(C)(C)C)cc2)c1` [P104], the Ki on CpIMPDH [1] was above 5 µM. In the case of `C=C(C)c1cccc(C(C)(C)NC(=O)Nc2ccc(Cl)c(OC)c2)c1` [P105], the Ki at CpIMPDH [1] was 0.0013 ± 0.0002 µM. For `CC(=NOCCN)c1cccc(C(C)(C)NC(=O)Nc2ccc(Cl)c([N+](=O)[O-])c2)c1` [P131], the Ki at CpIMPDH [1] was 0.02 ± 0.003 µM.

On to `C[C@H](Nc1cccc(Cl)c1Cl)C(=O)Nc1ccc2oc(-c3ccncc3)nc2c1` [Q67], for which the Ki on CpIMPDH [1] (read-out: CpIMPDH Kiapp) was 0.0005 ± 0.0001 µM. Further, the MIC with Mtb strain H37Rv (setting [3]) was found to be 35 ± 15 µM; with Mtb strain H37Rv (setting [5]), 50 µM; in the assay with Mtb strain H37Rv (setting [6]), 6.7 ± 3 µM (≈ 2.86 µg/mL); with Mtb strain H37Rv (read-out: M. tuberculosis MIC), 6.7 µM (≈ 2.86 µg/mL); with Mtb strain H37Rv (setting [4]), 11.8 ± 6.3 µM (≈ 5.04 µg/mL). On CpIMPDH [2], `C[C@H](Oc1ccccc1Cl)C(=O)Nc1ccc2oc(-c3ccncc3)nc2c1` [Q77] registered a Ki of 0.013 µM. Moreover, the MIC was determined as 19 µM in the assay with Mtb strain H37Rv (setting [3]); 37 µM with Mtb strain H37Rv (setting [5]); 6.3 ± 3 µM (≈ 2.48 µg/mL) in the assay with Mtb strain H37Rv (setting [6]); 6.3 µM (≈ 2.48 µg/mL) in the assay on Mtb strain H37Rv (read-out: M. tuberculosis MIC); 11 ± 2 µM (≈ 4.33 µg/mL) with Mtb strain H37Rv (setting [4]).
